The results in this text go back to a collection of fitness landscapes (doi:10.1126/science.1257360).

First the molecules themselves.
B1: PhoQ; a variant is named by its letters at X, in order, P23837 (parent)
chain: MKKLLRLFFPLSLRVRFLLATAAVVLVLSLAYGMVALIGYSVSFDKTTFRLLRGESNLFYTLAKWENNKLHVELPENIDKQSPTMTLIYDENGQLLWAQRDVPWLMKMIQPDWLKSNGFHEIEADVNDTSLLLSGDHSIQQQLQEVREDDDDAEMTHSVAVNVYPATSRMPKLTIVVVDTIPVELKSSYMVWSWFIYVLSANLLLVIPLLWVAAWWSLRPIEALAKEVRELEEHNRELLNPATTRELTSLVRNLNRLLKSERERYDKYRTTLTDLTHSLKTPLXXLQXXLRSLRSEKMSVSDAEPVMLEQISRISQQIGYYLHRASMRGGTLLSRELHPVAPLLDNLTSALNKVYQRKGVNISLDISPEISFVGEQNDFVEVMGNVLDNACKYCLEFVEISARQTDEHLYIVVEDDGPGIPLSKREVIFDRGQRVDTLRPGQGVGLAVAREITEQYEGKIVAGESMLGGARMEVIFGRQHSAPKDE

Some of the results follow.

The variants in the test derive from B1. The test is described as follows: enrichment ratio after two sorts for PhoP signalling (ratio (wild type AVST 3.29)); higher = more functional. Particulars: with PhoP (E. coli).
As for VDGP, the enrichment ratio is no more than 0.25. With DWYM the figure was no more than 0.25. Take QDSQ: the enrichment ratio is no more than 0.25.

Turning to GTMQ, the enrichment ratio was no more than 0.25. With WFKW the figure was no more than 0.25; with FVLY, 1.57. As for SQPR, the enrichment ratio was no more than 0.25.

On to PMLV, for which the enrichment ratio is no more than 0.25.

In the case of ALLK, the enrichment ratio turned out to be 1.91. With TSHH the figure was 8.77; with GLDG, no more than 0.25; with VMHF, no more than 0.25.

For the variant REVW, the enrichment ratio is no more than 0.25.

Take MEAP: the enrichment ratio was no more than 0.25. The figure for VLLR is no more than 0.25; for IRDA it is no more than 0.25; for NNVP it is no more than 0.25. With LDSE the figure was no more than 0.25; with AFRK, no more than 0.25. The figure for FYIW is no more than 0.25; for NPPC it is no more than 0.25; for YQAW it is no more than 0.25.

In the case of VQSH, the enrichment ratio is no more than 0.25. The figure for ARWV is no more than 0.25; for TGQK it is no more than 0.25; for MKCV it is no more than 0.25. The figure for GCRT is no more than 0.25. The figure for MMRK is no more than 0.25. On to KKFP, for which the enrichment ratio is no more than 0.25.

As for MVER, the enrichment ratio is no more than 0.25.

Turning to KLCY, the enrichment ratio is no more than 0.25.

In the case of PFRQ, the enrichment ratio was no more than 0.25. With QYPT the figure was no more than 0.25. On to DQSW, for which the enrichment ratio was no more than 0.25. The figure for WHRD is no more than 0.25; for MPQP it is no more than 0.25. For the variant WSMP, the enrichment ratio was no more than 0.25. With DVAK the figure was no more than 0.25; with HLWD, no more than 0.25; with FSPT, no more than 0.25. The figure for INKA is no more than 0.25; for ENPS it is no more than 0.25; for FCPP it is no more than 0.25. With QQRF the figure was no more than 0.25; with MKDR, no more than 0.25; with RPPP, no more than 0.25. With TCSL, the enrichment ratio was found to be 16.4. The figure for RLAY is no more than 0.25; for NWHK it is no more than 0.25. With KNTS the figure was no more than 0.25. The figure for VSSP is no more than 0.25; for IITR it is no more than 0.25; for LFWY it is no more than 0.25. As for HHQW, the enrichment ratio is no more than 0.25. As for MTNS, the enrichment ratio is no more than 0.25.

VSYN: the enrichment ratio was no more than 0.25. The figure for ESPE is no more than 0.25; for GKFK it is no more than 0.25; for GMHF it is no more than 0.25. With IDTQ the figure was no more than 0.25; with KEQI, no more than 0.25; with WYKS, no more than 0.25. With IDGP the figure was no more than 0.25. Regarding EQSG, the enrichment ratio was no more than 0.25. For WLGN, the enrichment ratio was no more than 0.25.

Consider KFDV, for which the enrichment ratio is no more than 0.25. With LWRR the figure was no more than 0.25; with PYWV, no more than 0.25; with SIDK, no more than 0.25. In the case of GSKT, the enrichment ratio was no more than 0.25. With LYGW the figure was no more than 0.25; with SWHQ, no more than 0.25; with VFYY, no more than 0.25.

Turning to RPHK, the enrichment ratio was no more than 0.25. The figure for MGTS is no more than 0.25; for LMYP it is no more than 0.25; for VNCC it is 0.513. RGLK: the enrichment ratio was no more than 0.25. On to WHVY, for which the enrichment ratio was no more than 0.25.

In the case of WNRW, the enrichment ratio was no more than 0.25.

Regarding KLPW, the enrichment ratio was no more than 0.25.

As for LDGC, the enrichment ratio was no more than 0.25. With LMLV the figure was no more than 0.25; with APSE, no more than 0.25; with QGCF, no more than 0.25. With EYQY, the enrichment ratio is no more than 0.25. With VMDG the figure was no more than 0.25; with LKYN, no more than 0.25; with TEVM, 10.6. With LAKK the figure was no more than 0.25; with QAWW, no more than 0.25; with LGRN, no more than 0.25. With TPEL the figure was no more than 0.25. Regarding FTYW, the enrichment ratio was no more than 0.25. RSYT: the enrichment ratio was no more than 0.25. With FQFP the figure was no more than 0.25; with THSA, 8.45; with HNQH, no more than 0.25.

In the case of SRLG, the enrichment ratio was no more than 0.25. The figure for QHFQ is no more than 0.25; for FANY it is no more than 0.25.

Take PQEC: the enrichment ratio is no more than 0.25. With FDRY the figure was no more than 0.25; with HSPG, no more than 0.25. Consider IFTH, for which the enrichment ratio was no more than 0.25. The figure for YEAY is no more than 0.25; for NCRL it is no more than 0.25.

YMAP: the enrichment ratio was no more than 0.25. In the case of IGIC, the enrichment ratio is no more than 0.25.

As to VNKG, the enrichment ratio is no more than 0.25. The figure for IFEC is no more than 0.25. Regarding TTFP, the enrichment ratio is no more than 0.25. The figure for YVIC is no more than 0.25. With KALK the figure was no more than 0.25; with YAGW, no more than 0.25; with IEDR, no more than 0.25.

In the case of IQRI, the enrichment ratio is no more than 0.25. The figure for YLFR is no more than 0.25; for QGFS it is 4.45. With FMHN the figure was no more than 0.25; with GGNH, no more than 0.25; with YLER, no more than 0.25. On to VLHF, for which the enrichment ratio is no more than 0.25. The figure for VQVV is no more than 0.25; for GMNC it is no more than 0.25; for MNDQ it is no more than 0.25. With SFPW the figure was no more than 0.25; with RAAI, no more than 0.25; with TITA, 3.34. With GWPN the figure was no more than 0.25. As for KCFQ, the enrichment ratio was no more than 0.25.

As to IYHF, the enrichment ratio was no more than 0.25.

On to VQTT, for which the enrichment ratio was no more than 0.25. The figure for SIVA is 5.06. On to SPFW, for which the enrichment ratio is no more than 0.25. With LYSH the figure was no more than 0.25. With RSKV the figure was no more than 0.25; with TDKI, no more than 0.25.

With HGAN, the enrichment ratio is no more than 0.25. CLFM: the enrichment ratio is no more than 0.25. In the case of PNQV, the enrichment ratio was no more than 0.25.

Consider MSAH, for which the enrichment ratio came to 1.79. As for FFGP, the enrichment ratio is no more than 0.25. With NGGW the figure was no more than 0.25. The figure for VCCT is no more than 0.25; for HKCF it is no more than 0.25. With WTPA the figure was no more than 0.25; with FVYV, no more than 0.25.

As for NKDH, the enrichment ratio was no more than 0.25. The figure for MVVQ is no more than 0.25; for GLQP it is no more than 0.25; for SINW it is no more than 0.25. On to ANAH, for which the enrichment ratio came out at 1.65.
